These are yes or no findings as the source states them, for the method shown. For some assays here: Binding seen in cells or lysates may run through a third protein. For some assays here: Tags and fused reporters may be left off the sequences shown. Some binding calls cover weakened binding; strength is not graded here.

By UniProt entry, the sequences of proteins in these tests, tags left out. Residues count along the entry.
UniProt P20649, residues 837-949: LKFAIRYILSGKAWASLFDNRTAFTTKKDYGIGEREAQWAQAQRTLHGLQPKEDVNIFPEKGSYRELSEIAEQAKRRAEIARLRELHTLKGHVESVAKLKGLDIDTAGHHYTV

Assay [1] deals with T1, pGBKT7-RIN4 (Arabidopsis thaliana) (UniProt Q8GYN5).
T1 sequence: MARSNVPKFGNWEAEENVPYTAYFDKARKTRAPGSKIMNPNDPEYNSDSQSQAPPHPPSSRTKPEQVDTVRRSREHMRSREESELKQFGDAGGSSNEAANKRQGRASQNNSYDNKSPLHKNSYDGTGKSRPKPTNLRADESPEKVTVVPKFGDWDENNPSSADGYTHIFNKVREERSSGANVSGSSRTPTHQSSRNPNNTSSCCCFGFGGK
Nature of the assay: two-hybrid; Matchmaker system, yeast AH109, beta-galactosidase (lacZ) reporter (unpublished data).

Assay [2] addresses T1, pGBKT7-RIN4 (Arabidopsis thaliana). Kind of assay: two-hybrid; Matchmaker system (Clontech), yeast AH109; RIN4 in pGBKT7 (BD), AHA fragments in pGADT7 (AD); growth on SD lacking leucine, tryptophan and histidine.
The target in assay [3] is T2, AUX1-cCFP (Arabidopsis thaliana) (UniProt Q96247).
T2 sequence: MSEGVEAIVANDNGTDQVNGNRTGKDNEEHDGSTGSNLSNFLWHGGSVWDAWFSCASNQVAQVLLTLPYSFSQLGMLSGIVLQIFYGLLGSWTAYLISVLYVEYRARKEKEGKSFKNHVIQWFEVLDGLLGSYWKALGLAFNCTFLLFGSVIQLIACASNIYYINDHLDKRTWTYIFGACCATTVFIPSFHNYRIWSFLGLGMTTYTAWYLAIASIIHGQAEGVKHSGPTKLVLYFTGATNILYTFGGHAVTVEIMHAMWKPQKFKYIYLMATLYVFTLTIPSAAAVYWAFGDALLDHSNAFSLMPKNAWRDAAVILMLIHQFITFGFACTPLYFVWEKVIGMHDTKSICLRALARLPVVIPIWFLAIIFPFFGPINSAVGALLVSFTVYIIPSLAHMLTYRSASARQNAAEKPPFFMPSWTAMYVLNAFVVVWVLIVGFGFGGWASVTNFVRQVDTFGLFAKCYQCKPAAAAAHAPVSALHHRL
Kind of assay: split reporter; BiFC with nYFP and cCFP fusions transiently co-expressed in N. benthamiana leaves; YFP fluorescence by confocal microscopy 24-48 h after infiltration.

Take “pGADT7-AHA1(837-950) (from UniProt P20649 837-949) (domain or fragment)”: the binding entry in assay [1] and in assay [2] was “binds weakly” each time.

B1: RIN4 BiFC fusion (cCFP-RIN4 or nYFP-RIN4) (protein, UniProt Q8GYN5 1-211)
chain: T1 sequence
With B1, in assay [3], the binding entry is on record as “no binding”.

B2: pGADT7-AHA2(837-949) (domain or fragment, UniProt P19456 837-948)
chain: FKFAIRYILSGKAWLNLFENKTAFTMKKDYGKEEREAQWALAQRTLHGLQPKEAVNIFPEKGSYRELSEIAEQAKRRAEIARLRELHTLKGHVESVVKLKGLDIETPSHYTV
As for B2, the binding result in assay [1] and in assay [2] was “binds weakly” throughout.

The values are drawn from article PMC2694982.
